SMILES strings stand for the structures. The whole screen tested about 48,000 compounds, of which about 120 (0.25%) were called active. Another 4% or so got no clear call; they are omitted. Calls follow the shape of the dose curve; as a rule, active = well fitted activation curve with a large enough effect; inconclusive = small, poorly fitted or top-dose-only effect, or another doubt; inactive = no such curve, though single readings can be large or run the other way. The list shows a part of the results.

A short description of the assay: Primary qHTS for Identification of Small Molecule Activators of Huntingtin-Antisense Promoter Activity. Also: nearly all actives have a fitted effect of over 55% in size. The conditions noted are these: HEK293 HTT-AS promoter firefly luciferase reporter (activity 0% = vehicle and -100% = no light), 24 h; series mostly up to 57.5 µM; activity change, positive = activation: at the top concentration. A digest of the protocol:
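HEK293 cells carrying firefly luciferase reporters were seeded at 2,500 per well in Opti-MEM and cultured for 24 h. They were then treated with compounds at up to 57.5 uM final for 24 h at 37 degrees C before Dual-Glo luminescence readout.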
For the compound `CCC1Oc2ccccc2N(CC(=O)NCc2ccccc2)C1=O` (configuration not stated), the “activity change, positive = activation” value was inactive: 20.3%. Then `Cn1c(=O)c(=O)n(C)c2cc(N3CCCC3)c(NC(=O)c3ccccc3Cl)cc21`, with inactive: -7.2%. Then `COc1ccc2nc(N(Cc3cccnc3)C(=O)c3ccc(Cl)cc3)sc2c1`, with inactive: -22.2%; and `CCS(=O)(=O)N1CCc2cc(C(=O)Nc3cc(C)cc(C)c3)ccc21`, with inactive: 12.9%. For `COC(=O)c1ccc2c(c1)N(CC(=O)Nc1ccc(C)c(C)c1)C(=O)c1ccccc1S2` the value was inactive: 0.451%; for `CN1CCC(CNc2ccc3ncc(-c4cccc(OC(F)(F)F)c4)n3n2)CC1`, inactive: -29.6%; for `Cc1ccc(C)c(N2CCN(C(=O)NCc3noc4ccccc34)CC2)c1`, inactive: -23.9%. On to `Cc1cc2oc(C(=O)Nc3sc4c(c3C(=O)NCC3CCCO3)CCCC4)cc(=O)c2cc1C` (configuration not stated), for which the “activity change, positive = activation” value was inactive: -3.23%. For `Cn1c(=O)c2c(-c3ccc(Cl)cc3)ccnc2n(C)c1=O` the value was inactive: 2.13%; for `COc1ccc(OC)c(CCNc2nc3cc(OC)c(OC)cc3c3nc(-c4cccnc4)nn23)c1`, inactive: -7.44%; for `CCCCN(CC)CCNC(=O)CN1C(=O)COc2ccc(S(=O)(=O)N3CCOCC3)cc21`, inactive: -8.78%.

As for `O=S(=O)(NCC(c1ccco1)N1CCN(c2ccc(F)cc2)CC1)c1cc(F)ccc1F` (configuration not stated), the “activity change, positive = activation” value was inactive: -38.4%.

With `COc1ccc(CCNC(=O)c2ccc3[nH]c(C)c(C)c3c2)cc1OC`, the “activity change, positive = activation” value is inactive: 2.31%. For `Cc1ccc(NC(=O)Cn2c(=O)n(CC(=O)NCCc3ccccc3)c(=O)c3ccccc32)cc1` the value was inactive: -4.96%; for `CCc1ccccc1NC(=O)Cn1nnc(C(=O)NCc2cccc(OC)c2)c1N`, inactive: -21%. For `COc1ccc(CC(=O)Nc2nnc3n2CCS3)cc1OC` the value was inactive: -16.2%; for `COc1ccc(CNC(=O)CCc2c(C)nc3c4cccnc4nn3c2C)cc1`, inactive: -16.3%; for `COc1ccc(C)cc1-n1c(SCC(=O)NCc2ccco2)nc2c([nH]c3ccccc32)c1=O`, inactive: -28.7%. Then `CCCCN(CC)CCCNC(=O)c1nn(-c2ccc(OC)cc2)c(=O)c2c1c1ccccc1n2C`, with inactive: -6.73%.

As for `O=C(Nc1ncc(Cc2ccccc2Cl)s1)c1ccc2c(c1)CC(c1ccccc1)OC2=O` (configuration not stated), the “activity change, positive = activation” value is inactive: -24.2%. `CCCCN(CC)CCCNC(=O)c1sc2nc3n(c(=O)c2c1C)CCCCC3`: the “activity change, positive = activation” value is inactive: 3.72%. `Cc1ccc(CCNC(=O)CCCn2c(=O)c3cccn3c3ccc(F)cc32)cc1`: the “activity change, positive = activation” value is inactive: -24.2%.

Consider `CCn1c(=O)c2sccc2n2c(CCCC(=O)Nc3ccc(Oc4ccccc4)cc3)nnc12`, for which the “activity change, positive = activation” value was inactive: -8.75%. On to `CCOc1ccccc1CNC(=O)CN1C(=O)c2cccnc2Oc2ccc(C)cc21`, for which the “activity change, positive = activation” value is inactive: -24.8%. Then `O=C(Nc1ccc(Br)cc1)c1cc(S(=O)(=O)N2CCc3ccccc32)ccc1F`, with inactive: -34.2%; and `NCC(=O)CCC(=O)O`, with inactive: 4.68%; and `N[C@H](CSC(c1ccccc1)(c1ccccc1)c1ccccc1)C(=O)O`, with inactive: -22.4%. For `CCC(C(=O)O)C1CCC(C)C(C(C)C(O)C(C)C(=O)C(CC)C2OC3(C=CC(O)[C@@]4(CC[C@](C)(C5CC[C@@](O)(CC)C(C)O5)O4)O3)C(C)CC2C)O1` (some centres not stated) the value was inactive: -92.3%; for `COc1ccc(OC)c(NC(=O)N2CCC3(CC2)Oc2ccccc2C(=O)N3Cc2ccccc2F)c1`, inactive: -19%; for `CCCCN(C)C(=O)c1ccc2c(c1)NC(=O)C(CC(C)C)N2` (configuration not stated), inactive: -1.16%. Then `COc1ccc(-c2noc(CC(=O)N(C)c3cc(Cl)c(OC)cc3OC)n2)cc1`, with inactive: -27.4%; and `CCN1C(=O)C2(c3ccccc31)c1c(oc3ccccc3c1=O)C(=O)N2CCOC` (configuration not stated), with inactive: -7.99%; and `Cc1ccc(NC(=O)c2nc(S(C)(=O)=O)ncc2N(Cc2ccco2)Cc2ccco2)cc1`, with inactive: -20.7%. On to `Cc1ccc(-c2nc(-c3cccs3)c(-c3cccs3)[nH]2)cc1`, for which the “activity change, positive = activation” value was inactive: -30.4%. As to `Cc1ccc(OCCSc2nc3ccccc3n2CCC(=O)O)cc1`, the “activity change, positive = activation” value was inactive: -5.49%. For `CN(Cc1ccccc1)c1nc2c(S(=O)(=O)c3ccccc3)nnn2c2ccsc12` the value was inactive: -4.23%; for `Cc1ccc(S(=O)(=O)c2nnn3c2nc(NC2CCCCC2)c2sccc23)cc1C`, inactive: -41.7%; for `Cc1cc(C)cc(OCC(=O)N(Cc2ccco2)Cc2ccccc2Cl)c1`, inactive: -39.3%.

As for `CN(C)S(=O)(=O)N(CC(=O)NCCSCc1ccc(Cl)cc1Cl)c1ccccc1`, the “activity change, positive = activation” value was inactive: -34.5%. Then `CSc1ccc(CCNC(=O)C2CCCN(S(=O)(=O)N(C)c3ccc(F)cc3)C2)cc1` (configuration not stated), with inactive: -24.2%; and `COc1ccc(CN(CCN(C)C)c2ncccn2)cc1`, with inactive: -12.6%; and `COc1ccc(NC(=O)CN2C(=O)C(c3ccccc3)=NC23CCC(C)CC3)cc1Cl` (configuration not stated), with inactive: -34%. Then `COc1ccc(-n2ccnc(NCCc3ccc(S(N)(=O)=O)cc3)c2=O)cc1Cl`, with inactive: -23.7%.

Take `CC(C)c1ccc(NC(=O)c2cc(S(=O)(=O)NCCc3ccccc3)ccc2F)cc1`: the “activity change, positive = activation” value is inactive: -33.4%. In the case of `Cc1cccn2c(=O)cc(COc3cccc(NC(=O)Nc4cccc(Cl)c4)c3)nc12`, the “activity change, positive = activation” value was inactive: -7.32%. Regarding `O=C1Cc2cc(S(=O)(=O)Nc3cccc(C(F)(F)F)c3)cc3c2N1CCC3`, the “activity change, positive = activation” value is inactive: -21.5%. With `COc1ccc(C(C)C)cc1S(=O)(=O)NCCc1c(C)[nH]c2c(Cl)cccc12`, the “activity change, positive = activation” value is inactive: -44.8%.

Consider `C[C@H](NC(=O)OC(C)(C)C)c1nnc(SCc2ccc(Cl)cc2Cl)o1`, for which the “activity change, positive = activation” value is inactive: -33.4%. Then `COc1cc2[nH]c(=O)n(CCCC(=O)N(C)Cc3ccccc3)c(=O)c2cc1OC`, with inactive: -36%; and `CCOC(=O)c1ccc(N2C(=O)c3n[nH]c(C)c3C2c2ccc(CC)cc2)cc1` (configuration not stated), with inactive: -21.7%. For `CCc1ccccc1NC(=O)Cn1nc(C)c2nn(-c3ccc(Cl)cc3)c(C)c2c1=O`, the “activity change, positive = activation” value was inactive: -40.8%. For `Cc1ccc(NC(=O)Cn2cc(S(=O)(=O)Cc3ccccc3)c3ccccc32)cc1C` the value was inactive: -25.6%. For `COC(=O)c1cc2occc2n1Cc1nc(-c2ccc(Cl)cc2)oc1C` the value was inactive: 16%; for `CCc1ccc(S(=O)(=O)c2cn(C)c3ccc(C)cc3c2=O)cc1`, inactive: -20%. For `Cc1ccc(-n2nc(C(=O)N(C)c3ccccc3Cl)c3c4ccccc4n(C)c3c2=O)cc1` the value was inactive: -5.2%; for `CCOCCCNC(=O)CN1C(=O)CCn2nc(-c3cccn3C)cc21`, inactive: -2.48%; for `CCS(=O)(=O)c1nc(S(=O)(=O)c2ccc(Cl)cc2)c(NCc2ccc(Cl)cc2)s1`, inactive: -30%. `CCOC(=O)c1[nH]c(C)c(CCC(=O)N2CCN(c3ccc(Cl)cc3)CC2)c1C`: the “activity change, positive = activation” value is inactive: -29.1%. As to `COc1ccc(-c2ccc(=O)n(CC(=O)Nc3ccc(Br)cc3F)n2)cc1`, the “activity change, positive = activation” value was inactive: -17.2%. For `Cn1c(=O)c2c(-c3ccccc3)n(-c3cccc(C#N)c3)cc2n(C)c1=O` the value was inactive: -16.1%; for `O=C(O)c1ccc(Nc2ncnc3scc(-c4ccccc4)c23)cc1`, inactive: 8.27%. For `CCc1ccc2nc(N(Cc3cccnc3)C(=O)Cc3ccccc3)sc2c1` the value was inactive: -24.3%; for `COc1ccc(Cc2c(C)nn(-c3nc(C)c(C(=O)Nc4cccc(C(C)=O)c4)s3)c2C)cc1`, inactive: -35%; for `CCC(C(=O)NCc1ccccc1Cl)n1c(=O)c2cccn2c2ccccc21` (configuration not stated), inactive: -22.5%. Then `Cc1cc2c(OCC(CNC(C)(C)C)OC(=O)c3ccccc3)cccc2[nH]1` (configuration not stated), with inactive: -6.24%; and `Cc1ccc2c(c1)N(C(=O)c1ccc(F)cc1)C(C)(C)CC2(C)c1ccccc1` (configuration not stated), with inactive: -28.7%; and `COC(=O)c1cc(OC)c(OC)cc1NC(=O)c1ccc2c(c1)CCN2S(C)(=O)=O`, with inactive: 5.6%. With `CCc1ccccc1N1C(=O)N(Cc2cc(=O)n3ccccc3n2)c2ccccc2S1(=O)=O`, the “activity change, positive = activation” value was inactive: -33.4%. Then `O=C(NCc1ccccc1)c1c2c(nc3ccccc13)C(=O)N(C1CCCCC1)C2`, with inactive: -9.13%; and `CC(C)c1ccc(NC(=O)[C@H]2O[C@@H]3OC(C)(C)O[C@@H]3[C@H]3OC(C)(C)O[C@H]32)cc1`, with inactive: 2.85%.

In the case of `Cc1nn(CC(=O)N2CCN(c3ccccc3F)CC2)c(=O)c2cccn12`, the “activity change, positive = activation” value was inactive: -6.8%.

Regarding `CCN(CC)c1ccc2nc3c(=O)n(C)c(=O)n(C)c3nc2c1`, the “activity change, positive = activation” value is inactive: 2.62%. For `Cc1cc(OC(C)C(=O)N(Cc2ccco2)Cc2ccco2)cc(C)c1Cl` (configuration not stated) the value was inactive: -44.9%; for `COc1cc(C=CC(=O)O)ccc1O`, inactive: -11.6%; for `CCn1nc(C)c(CCN(C)C(=O)Nc2cc(Cl)c(OC)cc2OC)c1C`, inactive: -0.211%.

In the case of `O=C(CSc1oc(-c2ccc(F)cc2)nc1S(=O)(=O)c1ccccc1)c1ccc(Cl)cc1`, the “activity change, positive = activation” value was inactive: -17.8%. For `CCN(Cc1ccccc1)C(=O)Cn1c(=O)cc(C)c2c(C)nn(-c3cccc(F)c3)c21`, the “activity change, positive = activation” value is inactive: -10.1%. For `CCOc1ccc(-c2nnc(SCC(=O)NC3CCCCC3)nc2-c2ccc(OCC)c(OC)c2)cc1OC` the value was inactive: 12.7%. As to `CC(C)c1ccc(NC(=O)C2CCC(CNS(=O)(=O)c3ccc4c(c3)CCCC(=O)N4)CC2)cc1` (configuration not stated), the “activity change, positive = activation” value is inactive: -50.4%. Take `CCN1C(=O)c2ccccc2S(=O)(=O)c2ccc(C(=O)NCc3ccc(C)cc3)cc21`: the “activity change, positive = activation” value is inactive: -22%.

Consider `COc1ccc(CNC(=O)CCn2c(=O)c3cccn3c3ccc(F)cc32)cc1OC`, for which the “activity change, positive = activation” value was inactive: -16.7%. Then `CCc1ccc2occ(CC(=O)Nc3nnc(SC)s3)c2c1`, with inactive: -17.2%. Then `CC(=O)CC(c1ccc([N+](=O)[O-])cc1)c1c(O)c2ccccc2oc1=O` (configuration not stated), with inactive: -27.8%; and `COc1cccc2c1Oc1ncccc1N(C(=O)Nc1cccc(Cl)c1)C2`, with inactive: -11.7%; and `Cn1nc(-c2ccc(C(=O)Nc3cccc(C(F)(F)F)c3)cc2)c2ccccc2c1=O`, with inactive: -9.34%. Then `CCCCC(=O)OC1=C(C(=O)c2ccccc2)N(C)S(=O)(=O)c2ccccc21`, with inactive: -16%; and `CCCCCCCCNC(C)C(O)c1ccc(SC(C)C)cc1` (configuration not stated), with inactive: -13.9%; and `O=C(Nc1ccc(F)cc1F)c1cnn(-c2ccc(F)cc2)c1-n1cccc1`, with inactive: -8.99%. For the compound `Cc1ccc(CNC(=O)c2cc(S(=O)(=O)N3CCCCCC3)cn2C)cc1`, the “activity change, positive = activation” value was inactive: -22.9%. Then `CCOc1ccccc1NC(=O)CN1c2ccccc2S(=O)(=O)c2ccccc21`, with inactive: -20.4%; and `COc1ccc(CNS(=O)(=O)c2cnc(N)nc2)cc1`, with inactive: -3.42%. Then `Cc1cccc(CNC(=O)c2ccc3c(c2)N(C)C(=O)C2CCCCN32)c1` (configuration not stated), with inactive: -24.8%; and `COc1ccc(Cn2ccc3nc(C)c(C(=O)Nc4ccc(OC(F)(F)F)cc4)cc3c2=O)cc1`, with inactive: -32.9%; and `CCCCC(=O)OC1=C(C(=O)c2ccccc2)N(CC)S(=O)(=O)c2ccccc21`, with inactive: -26.2%. For `CSc1ccc(CNC(=O)c2cc3cc(S(=O)(=O)N4CCCCC4)ccc3n2C)cc1` the value was inactive: -37.3%; for `O=C(Nc1cccc(-c2nc3ccccc3o2)c1)c1cccc(Br)c1`, inactive: -7.25%. Consider `CCOC(=O)c1c(Nc2cc(C)cc(C)c2)nnc(-c2ccccc2)c1-c1ccccc1`, for which the “activity change, positive = activation” value is inactive: -24.9%.

Values taken from PubChem BioAssay AID1508624 (National Center for Advancing Translational Sciences (NCATS), 2021).
